For this test, the target named is GTPase KRas (Homo sapiens) (UniProt P01116). The test can be described thus: Covalent labelling of cysteine mutants by fragments, read by mass spectrometry (AID 2202238). On the set-up: protein at 5 µM with 500 µM competing thiol for 1.5 h. Particulars: KRAS G12D cysteine mutants, disulfide tethering, MALDI-TOF labeling, stronger effect = higher value, fragment at 500 µM.

Where [1] appears, read: measured here: G60C mutant labeling.
The mark [2] stands for this setting: measured here: G75C mutant labeling.
[3] abbreviates: measured here: H94C mutant labeling.
The mark [4] stands for this setting: measured here: I36C mutant labeling.
Where [5] appears, read: measured here: L120C mutant labeling.
Where [6] appears, read: measured here: M67C mutant labeling.
Setting [7] is: measured here: M72C mutant labeling.
[8] abbreviates: measured here: N26C mutant labeling.
[9] abbreviates: measured here: N86C mutant labeling.
The mark [10] stands for this setting: measured here: P121C mutant labeling.
Setting [11] is: measured here: S122C mutant labeling.
Setting [12] is: measured here: S136C mutant labeling.

Some of the results follow. Further columns of the screen follow, without active or inactive calls.

UniProt P01116, sequence (P01116 whole entry, looked up, the tested form may be a part): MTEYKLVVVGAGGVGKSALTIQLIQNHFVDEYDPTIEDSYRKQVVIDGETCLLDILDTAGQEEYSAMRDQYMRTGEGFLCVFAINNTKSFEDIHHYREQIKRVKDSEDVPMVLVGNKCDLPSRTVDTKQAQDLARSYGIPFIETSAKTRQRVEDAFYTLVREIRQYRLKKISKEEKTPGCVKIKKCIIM

Consider `O=C(NCCS)c1ccn(-c2ccc(Cl)cc2Cl)n1`, for which the percent labeling is 20.1% under setting [1]; 9.3% under setting [2]; 13.5% under setting [3]; 9.9% under setting [4]; 14.8% under setting [5]; 10.4% under setting [6]. The percent labeling under setting [7] is 34%; the percent labeling under setting [8] is 24.9%; the percent labeling under setting [9] was found to be 10%; the percent labeling under setting [10] worked out at 12.1%; the percent labeling under setting [11] was found to be 6.9%; the percent labeling under setting [12] amounted to 16.1%.

Molecule `Cc1cccc(C)c1-n1nnnc1CNC(=O)CCS` showed a percent labeling under setting [2] of 13.2%; a percent labeling under setting [3] of 37%; a percent labeling under setting [4] of 45.9%; a percent labeling under setting [5] of 33.2%; a percent labeling under setting [6] of 36.1%; a percent labeling under setting [7] of 50.9%. The same molecule registered a percent labeling under setting [9] of 38.5%, a percent labeling under setting [10] of 36.9%, a percent labeling under setting [11] of 39.9% and a percent labeling under setting [12] of 62.1%.

Take `O=C(CCCOc1ccc2c(c1)CCC(=O)N2)NCCS`: the percent labeling came to 47.5% under setting [1]; 16.1% under setting [2]; 36.9% under setting [3]; 37% under setting [4]; 33.7% under setting [5]; 34.8% under setting [6]. In addition, the percent labeling was 50.1% under setting [7]; 48.2% under setting [8]; 24.1% under setting [9]; 32.5% under setting [10]; 27.9% under setting [11]; 43.3% under setting [12].

With `Cn1cc(C(=O)NCCS)c2c(c1=O)CCCC2`, the percent labeling runs as follows: under setting [1], 45%; under setting [2], 19.6%; under setting [3], 36.4%; under setting [4], 27.6%; under setting [5], 39.3%; under setting [6], 38.6%. This molecule displayed a percent labeling under setting [7] of 64.2%; a percent labeling under setting [8] of 51.3%; a percent labeling under setting [9] of 30.8%; a percent labeling under setting [10] of 37.5%; a percent labeling under setting [11] of 34.5%; a percent labeling under setting [12] of 56.9%.

Take `O=C1CC(C(F)(F)F)C(C(=O)NCCS)N1` (configuration not stated): the percent labeling is, setting by setting: under setting [1], 24.8%; under setting [2], 12.1%; under setting [3], 26.3%; under setting [4], 25.6%; under setting [5], 26.7%; under setting [6], 23.9%. For the same molecule, the percent labeling under setting [7] stood at 12.7%; the percent labeling under setting [8] worked out at 32.1%; the percent labeling under setting [9] amounted to 24.6%; the percent labeling under setting [10] was 30.6%; the percent labeling under setting [11] turned out to be 27.5%; the percent labeling under setting [12] stood at 34.9%.

Regarding `O=C(CCS)NCc1conc1C1CCC1`, the percent labeling reads like this: under setting [2], 16.2%; under setting [3], 37.6%; under setting [4], 39.6%; under setting [5], 28.7%; under setting [6], 35.3%; under setting [7], 34%. Also, the percent labeling under setting [9] came to 26.9%, the percent labeling under setting [10] turned out to be 38.3%, the percent labeling under setting [11] is 33.7% and the percent labeling under setting [12] came out at 51.9%.

As to `O=C(CCS)NCc1ccncc1OCC(F)(F)F`, the percent labeling reads like this: under setting [2], 12.9%; under setting [3], 35.8%; under setting [4], 31.2%; under setting [5], 29.8%; under setting [6], 34.9%; under setting [7], 27.3%. The percent labeling came out at 20.6% under setting [9], 30.1% under setting [10], 30.9% under setting [11] and 41.8% under setting [12].

On to `COCCC1(c2nc(C)no2)CCN(C(=O)CCS)CC1`, for which the percent labeling amounted to 8.8% under setting [2]; 28.3% under setting [3]; 35% under setting [4]; 31.6% under setting [5]; 33.3% under setting [6]; 16% under setting [7]. This molecule also returned a percent labeling under setting [9] of 18.4%, a percent labeling under setting [10] of 29.8%, a percent labeling under setting [11] of 31.5% and a percent labeling under setting [12] of 53.4%.

As for `O=C(CCS)NC1(c2ccc(Br)cn2)CCC1`, the percent labeling by setting is: under setting [2], 20.1%; under setting [3], 46.6%; under setting [4], 44.5%; under setting [5], 33.9%; under setting [6], 40.5%; under setting [7], 38.2%. Besides, the percent labeling by setting is: under setting [9], 44%; under setting [10], 35.5%; under setting [11], 32.1%; under setting [12], 58.3%.

With `O=C(CCS)NCc1nnc(-c2ccncc2F)s1`, the percent labeling is 10.9% under setting [2]; 31.9% under setting [3]; 38.6% under setting [4]; 33.3% under setting [5]; 48.2% under setting [6]; 28.2% under setting [7]. Besides, the percent labeling by setting is: under setting [9], 20.2%; under setting [10], 27.2%; under setting [11], 25.8%; under setting [12], 45.7%.

In the case of `CCc1occ(C(F)(F)F)c1C(=O)NCCS`, the percent labeling by setting is: under setting [1], 49.2%; under setting [2], 14.6%; under setting [3], 32.4%; under setting [4], 14.3%; under setting [5], 21.7%; under setting [6], 17.7%. The percent labeling amounted to 19.8% under setting [7]; 28.6% under setting [8]; 31.5% under setting [9]; 18.6% under setting [10]; 19.7% under setting [11]; 23.8% under setting [12].

Consider `Cc1nc2c(c(C(F)(F)F)n1)CC(C(=O)NCCS)CC2` (configuration not stated), for which the percent labeling under setting [1] was determined as 48.3%; the percent labeling under setting [2] turned out to be 25.3%; the percent labeling under setting [3] came out at 38.2%; the percent labeling under setting [4] turned out to be 28%; the percent labeling under setting [5] was found to be 37.6%; the percent labeling under setting [6] was 43.2%. Also, the percent labeling by setting is: under setting [7], 26.7%; under setting [8], 42.7%; under setting [9], 26.1%; under setting [10], 33.7%; under setting [11], 27%; under setting [12], 53.6%.

On to `CN(C(=O)CCS)C(Cc1ccc(F)cc1)c1ccn(C)n1` (configuration not stated), for which the percent labeling by setting is: under setting [2], 17.5%; under setting [3], 44.4%; under setting [4], 37.2%; under setting [5], 32.7%; under setting [6], 52.1%; under setting [7], 49.5%. For the same molecule, the percent labeling is 28.4% under setting [9], 32.8% under setting [10], 34.3% under setting [11] and 62.9% under setting [12].

Consider `CS(=O)(=O)Cc1n[nH]c(CNC(=O)CCS)n1`, for which the percent labeling by setting is: under setting [2], 12.3%; under setting [3], 27.2%; under setting [4], 33.4%; under setting [5], 31.5%; under setting [6], 25.8%; under setting [7], 13.9%. Further, the percent labeling is, setting by setting: under setting [9], 15.4%; under setting [10], 31.5%; under setting [11], 34.8%; under setting [12], 37.9%.

With `O=C(CCS)Nc1cc(F)c(-n2ccnc2)c(F)c1`, the percent labeling amounted to 16.7% under setting [2]; 26.5% under setting [3]; 33.9% under setting [4]; 24.5% under setting [5]; 41.8% under setting [6]; 60.6% under setting [7]. The percent labeling was 16.6% under setting [9], 25.9% under setting [10], 19.4% under setting [11] and 32.1% under setting [12].

Take `O=C(NCCS)c1cnn(-c2ccccc2F)c1`: the percent labeling is 27.2% under setting [1]; 20.5% under setting [2]; 22.8% under setting [3]; 14% under setting [4]; 20.3% under setting [5]; 19.7% under setting [6]. The percent labeling reads like this: under setting [7], 55.7%; under setting [8], 40.7%; under setting [9], 17.3%; under setting [10], 34.8%; under setting [11], 11.9%; under setting [12], 40%.

For `Cc1cc(CNC(=O)CCS)cc(N2CCCC2)n1`, the percent labeling by setting is: under setting [2], 15.2%; under setting [3], 35.6%; under setting [4], 44.8%; under setting [5], 24%; under setting [6], 58.4%; under setting [7], 27.4%. Besides, the percent labeling was 14.1% under setting [9], 27.2% under setting [10], 25.4% under setting [11] and 54.6% under setting [12].

Turning to `O=C(NCCS)c1cc(Br)n2c1CCC2`, the percent labeling is, setting by setting: under setting [1], 48.6%; under setting [2], 11.4%; under setting [3], 33.9%; under setting [4], 17.7%; under setting [5], 28.1%; under setting [6], 20.4%. Besides, the percent labeling is, setting by setting: under setting [7], 37.1%; under setting [8], 28.5%; under setting [9], 20.7%; under setting [10], 19.2%; under setting [11], 16%; under setting [12], 29.3%.

For `Cn1cc(Br)cc1C(=O)NCCS`, the percent labeling under setting [1] stood at 55.5%; the percent labeling under setting [2] was determined as 18.6%; the percent labeling under setting [3] was 34%; the percent labeling under setting [4] came to 18.8%; the percent labeling under setting [5] was found to be 24.1%; the percent labeling under setting [6] was 16.4%. In addition, the percent labeling reads like this: under setting [7], 37.1%; under setting [8], 41.9%; under setting [9], 10.6%; under setting [10], 22.1%; under setting [11], 17.1%; under setting [12], 27.6%.

For the molecule `Cc1ccc(CN(C(=O)CCS)c2ccc3[nH]c(=O)[nH]c3c2)cc1`, the percent labeling by setting is: under setting [2], 21.9%; under setting [3], 42.9%; under setting [4], 29%; under setting [5], 23.7%; under setting [6], 29.3%; under setting [7], 43.4%. Besides, the percent labeling under setting [9] came to 25.3%, the percent labeling under setting [10] was 21.9%, the percent labeling under setting [11] was 14.6% and the percent labeling under setting [12] amounted to 46.1%.

As for `CN(C)C(=O)COc1ccccc1C(=O)NCCS`, the percent labeling is, setting by setting: under setting [1], 34.2%; under setting [2], 12.6%; under setting [3], 47.8%; under setting [4], 23%; under setting [5], 48.2%; under setting [6], 37.2%. For the same molecule, the percent labeling was 43.7% under setting [7]; 36.2% under setting [8]; 25.3% under setting [9]; 29.6% under setting [10]; 33.2% under setting [11]; 51.4% under setting [12].

For the molecule `CCn1nccc1CN(CCO)C(=O)CCS`, the percent labeling runs as follows: under setting [2], 8.4%; under setting [3], 27.8%; under setting [4], 27.4%; under setting [5], 24.8%; under setting [6], 29.7%; under setting [7], 15.5%. In addition, the percent labeling was 18.5% under setting [9], 36% under setting [10], 30.7% under setting [11] and 46.1% under setting [12].

As for `Cc1cccc(Nc2ccccc2C(=O)NCCS)c1C`, the percent labeling by setting is: under setting [1], 44.8%; under setting [2], 16%; under setting [3], 23%; under setting [4], 13.9%; under setting [5], 22%; under setting [6], 12.4%. In addition, the percent labeling is, setting by setting: under setting [7], 60.5%; under setting [8], 23.5%; under setting [9], 14.1%; under setting [10], 17.3%; under setting [11], 8%; under setting [12], 15.2%.

The values above are taken from PubChem BioAssay AID2202238 (Ras Initiative Chemistry Research Team, Frederick National …, 2025).
